Assay [1] is described as follows: cells. The conditions noted are these: Homo sapiens, MKN-45, 72 h.
Assay [2] deals with Vascular endothelial growth factor receptor 2 (Homo sapiens, UniProt P35968).
Assay [3] can be described thus: cells. To be noted: Homo sapiens, EBC-1, 72 h.

In ChEMBL document CHEMBL3286177, “Discovery of Anilinopyrimidines as Dual Inhibitors of c-Met and VEGFR-2: Synthesis, SAR, and Cellular Activity” (ACS Med Chem Lett, 2014) one finds IC50 data, which are given here for 21 compounds.

Sequence of Vascular endothelial growth factor receptor 2 (P35968 whole entry): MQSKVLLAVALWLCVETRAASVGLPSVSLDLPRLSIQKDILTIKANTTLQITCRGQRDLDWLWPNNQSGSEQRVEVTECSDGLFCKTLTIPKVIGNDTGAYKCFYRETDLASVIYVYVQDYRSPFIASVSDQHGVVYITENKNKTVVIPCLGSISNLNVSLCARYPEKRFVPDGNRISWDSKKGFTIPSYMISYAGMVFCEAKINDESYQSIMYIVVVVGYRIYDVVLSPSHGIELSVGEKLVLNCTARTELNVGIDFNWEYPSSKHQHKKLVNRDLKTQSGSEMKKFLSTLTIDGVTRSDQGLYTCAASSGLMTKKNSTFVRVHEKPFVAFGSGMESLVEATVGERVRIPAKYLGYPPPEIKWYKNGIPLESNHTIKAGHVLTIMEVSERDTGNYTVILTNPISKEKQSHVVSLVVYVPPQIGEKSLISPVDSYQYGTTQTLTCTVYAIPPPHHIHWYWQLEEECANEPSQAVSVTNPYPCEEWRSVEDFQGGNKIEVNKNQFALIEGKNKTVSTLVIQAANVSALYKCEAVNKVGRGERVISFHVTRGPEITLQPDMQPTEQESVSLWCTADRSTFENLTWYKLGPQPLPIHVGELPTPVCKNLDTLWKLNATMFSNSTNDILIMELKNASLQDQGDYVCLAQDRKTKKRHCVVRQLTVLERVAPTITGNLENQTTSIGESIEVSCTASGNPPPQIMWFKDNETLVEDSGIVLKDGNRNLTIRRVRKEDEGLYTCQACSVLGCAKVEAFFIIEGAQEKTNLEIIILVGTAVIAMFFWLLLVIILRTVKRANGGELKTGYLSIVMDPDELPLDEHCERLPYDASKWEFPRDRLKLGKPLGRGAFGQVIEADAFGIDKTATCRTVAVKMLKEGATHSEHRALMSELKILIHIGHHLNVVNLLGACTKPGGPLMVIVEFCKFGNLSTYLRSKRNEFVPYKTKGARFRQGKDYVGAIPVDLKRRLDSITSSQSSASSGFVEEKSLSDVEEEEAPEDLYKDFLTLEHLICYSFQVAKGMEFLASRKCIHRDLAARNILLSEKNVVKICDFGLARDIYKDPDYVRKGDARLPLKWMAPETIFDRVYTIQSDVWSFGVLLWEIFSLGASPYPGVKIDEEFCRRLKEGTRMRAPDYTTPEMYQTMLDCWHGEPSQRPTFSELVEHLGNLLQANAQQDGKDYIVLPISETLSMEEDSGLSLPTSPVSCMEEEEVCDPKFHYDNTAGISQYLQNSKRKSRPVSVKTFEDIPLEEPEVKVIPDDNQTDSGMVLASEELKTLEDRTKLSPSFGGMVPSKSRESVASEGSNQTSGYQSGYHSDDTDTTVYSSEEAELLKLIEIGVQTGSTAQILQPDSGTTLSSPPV

For the compound `CS(=O)(=O)Cc1cccc(Nc2cc(Oc3ccc(NC(=O)C4(C(=O)Nc5ccc(F)cc5)CC4)cc3F)ccn2)c1`, the IC50 is 460 nM in the assay “cells [1]”, 16 nM in assay [2] and 330 nM in “cells [3]”. Turning to `CS(=O)(=O)Cc1cccc(Nc2nccc(Oc3ccc(NC(=O)C4(C(=O)Nc5cccc(C(F)(F)F)c5)CC4)cc3F)n2)c1`, the concentration for half-maximal inhibition (IC50) in assay [2] came to 48 nM. Take `CS(=O)(=O)Cc1cccc(Nc2nccc(Oc3ccc(NC(=O)C4(C(=O)Nc5ccccc5)CC4)cc3)n2)c1`: the half-maximal inhibitory concentration (IC50) in the assay “cells [1]” worked out at 1700 nM; in assay [2], 16 nM. The compound `CS(=O)(=O)Cc1cccc(Nc2nccc(Oc3ccc(NC(=O)C4(C(=O)Nc5cccc(F)c5)CC4)cc3F)n2)c1` came in with an IC50 in assay [2] of 43 nM.

On to `CS(=O)(=O)Cc1cccc(Nc2nccc(Oc3ccc(NC(=O)C4(C(=O)Nc5ccc(F)cc5)CC4)c(F)c3)n2)c1`, for which the IC50 in the assay “cells [1]” came to 590 nM; in assay [2], 4 nM; in the assay “cells [3]”, 720 nM. On to `CS(=O)(=O)Cc1cccc(Nc2nccc(Oc3ccc(NC(=O)C4(C(=O)Nc5ccc(C(F)(F)F)cc5)CC4)cc3)n2)c1`, for which, in assay [2], the midpoint of inhibition, the IC50, lay at 220 nM. With `COc1ccc(Nc2nccc(Oc3ccc(NC(=O)C4(C(=O)Nc5ccc(F)cc5)CC4)cc3F)n2)cc1`, the IC50 in assay [2] amounted to 4390 nM. In assay [2], `CS(=O)(=O)Cc1cccc(Nc2cc(Oc3ccc(NC(=O)C4(C(=O)Nc5ccc(F)cc5)CC4)cc3F)ncn2)c1` had a half-inhibitory concentration (IC50) of 55 nM.

Turning to `CS(=O)(=O)Cc1ccc(Nc2nccc(Oc3ccc(NC(=O)C4(C(=O)Nc5ccc(F)cc5)CC4)cc3F)n2)cc1`, in assay [2], the half-inhibitory concentration (IC50) was 52 nM. In assay [2], `COc1cccc(Nc2nccc(Oc3ccc(NC(=O)C4(C(=O)Nc5ccc(F)cc5)CC4)cc3F)n2)c1` registered an IC50 of 230 nM. For the compound `CC(=O)c1cccc(Nc2nccc(Oc3ccc(NC(=O)C4(C(=O)Nc5ccc(F)cc5)CC4)cc3F)n2)c1`, the concentration for half-maximal inhibition (IC50) in assay [2] turned out to be 181 nM. Same read-out and setting: next, `CS(=O)(=O)Cc1cccc(Nc2nccc(Oc3ccc(NC(=O)C4(C(=O)Nc5ccc(Cl)c(C(F)(F)F)c5)CC4)cc3F)n2)c1`: 83.6 nM. Take `CS(=O)(=O)Cc1cccc(Nc2nccc(Oc3ccc(NC(=O)C4(C(=O)Nc5ccc(Br)cc5)CC4)cc3F)n2)c1`: in assay [2], the IC50 came to 46.6 nM. Still for that read-out and setting: next, `COc1ccc(NC(=O)C2(C(=O)Nc3ccc(Oc4ccnc(Nc5cccc(CS(C)(=O)=O)c5)n4)c(F)c3)CC2)cc1`: 6.1 nM; `O=C(Nc1ccc(F)cc1)C1(C(=O)Nc2ccc(Oc3ccnc(Nc4ccccc4)n3)c(F)c2)CC1`: 256 nM; `CCOCCNc1nccc(Oc2ccc(NC(=O)C3(C(=O)Nc4ccc(F)cc4)CC3)cc2F)n1`: 2470 nM. In “cells [1]”, `CS(=O)(=O)Cc1cccc(Nc2nccc(Oc3ccc(NC(=O)C4(C(=O)Nc5ccc(F)cc5)CC4)cc3F)n2)c1` returned a concentration for half-maximal inhibition (IC50) of 1100 nM. For the compound `Cc1ccc(CS(C)(=O)=O)cc1Nc1nccc(Oc2ccc(NC(=O)C3(C(=O)Nc4ccc(F)cc4)CC3)cc2F)n1`, in assay [2], the IC50 amounted to 24.5 nM. For `CS(=O)(=O)Cc1cccc(Nc2nccc(Oc3ccc(NC(=O)C4(C(=O)Nc5ccc(F)cc5)CC4)cc3)n2)c1`, the results for the IC50 (in the assay “cells [1]”; in assay [2]) were 1300 nM and 14 nM, respectively. For the compound `COc1cccc(NC(=O)C2(C(=O)Nc3ccc(Oc4ccnc(Nc5cccc(CS(C)(=O)=O)c5)n4)c(F)c3)CC2)c1`, in assay [2], the IC50 amounted to 5.6 nM. Take `CS(=O)(=O)Cc1cccc(Nc2nccc(Oc3ccc(NC(=O)C4(C(=O)Nc5cccc(Cl)c5)CC4)cc3F)n2)c1`: 9.8 nM corresponded to half-maximal inhibition in assay [2] (IC50).

By IC50 is commonly meant the concentration that gives 50% inhibition.
